Out of some 45,000 compounds screened, about 200 (0.44%) were called active. About 7% were inconclusive and are not listed. The call rests on the fitted dose curve; in most records, active means well fitted activation curve with a large enough effect; inconclusive means small, poorly fitted or top-dose-only effect; inactive means no such curve, though single readings can be large or run the other way. The list shows a part of the results.
test: qHTS of TDP-43 Inhibitors: NCGC Sytravon Library Screen; details: yeast TDP-43 toxicity rescue, BacTiter-Glo growth, 24 h; series mostly up to 46.1 µM; growth rescue (activation): at the top concentration; further: 0% is about no effect; nearly all actives have a fitted effect of over 55% in size
Outline: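 TDP-43-expressing yeast, pregrown in raffinose, seeded at OD600 0.02 in galactose medium with compound for 24 hr at 30 deg C. Growth read by BacTiter-Glo luminescence, so rescue of toxicity appears as activation.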

Row | SMILES | growth rescue (activation)
1 | O=C(Cn1cnc([N+](=O)[O-])n1)NCCc1ccccc1 | inactive: -6.78%
2 | O=C(CCc1nc2ccccc2c(=O)[nH]1)NCc1ccccn1 | inactive: -5%
3 | O=C(Nc1ccc2nc3n(c(=O)c2c1)CCCCC3)c1c(F)ccc([N+](=O)[O-])c1F | inactive: -17%
4 | O=C(CSc1nnc(COc2ccccc2)o1)N1CCCC1 | inactive: 13.4%
5 | NC(Cc1ccccc1)c1csc(Nc2ccc(C(=O)c3ccccc3)cc2)n1 (stereo not drawn) | inactive: 7.33%
6 | COc1ccc(CCC(=O)NNC(=O)c2cc(Cl)ccc2OC)cc1 | inactive: 30.3%
7 | CC(C)CN(C(=O)CCNC(=O)c1ccc([N+](=O)[O-])cc1)C1CCS(=O)(=O)C1 (stereo not drawn) | inactive: 3.78%
8 | CCCn1nc(C(=O)OCn2nnc3ccccc3c2=O)c2ccccc2c1=O | inactive: 7.17%
9 | CN(C)CCC#CC(O)(c1ccccc1)c1ccccc1 | inactive: -8.47%
10 | Cc1[nH]c(=O)nc(SCc2cccc(Cl)c2)c1C#N | inactive: 12.5%
11 | Cc1c(NC(=O)CSCc2c(F)cccc2Cl)c(=O)n(-c2ccccc2)n1C | inactive: 12.4%
12 | COc1cc(CCC(=O)NCc2ccc3c(c2)OCO3)cc(OC)c1OC | inactive: 6.2%
13 | Cc1ccc2nc(Cl)c(/C=N/NC(=O)CN3CCOCC3)cc2c1 | inactive: 15.6%
14 | O=C(CSc1nc(-c2ccccc2)cs1)Nc1ccccc1[N+](=O)[O-] | inactive: 30.8%
15 | N=c1sccn1CC(=O)Nc1ccc(Cl)cc1[N+](=O)[O-] | inactive: -5.28%
16 | C=C(C)Cn1c(N)cc(=O)nc1SCC(=O)Nc1cccc(C(F)(F)F)c1 | inactive: -0.76%
17 | O=C(COC(=O)CCC(=O)c1cccs1)NCCc1ccccc1 | inactive: 13.3%
18 | COc1cc(NC(=O)CS(=O)(=O)c2ccccc2)cc(OC)c1OC | inactive: -11.6%
19 | COCCc1ncc(CN2CCC(C(=O)Nc3ccc(-n4cccn4)cc3)CC2)cn1 | inactive: 11%
20 | Cc1c(CNC2CCC(C)CC2)c(C(=O)O)c(C)n1Cc1ccccc1 (stereo not drawn) | inactive: 0.664%
21 | CCc1nc2ccccc2[nH]c1=O | inactive: 15.8%
22 | O=C(O)c1ccc(COc2ccccc2[N+](=O)[O-])o1 | inactive: 1.86%
23 | Cn1c(=O)c2cc(NC(=O)NCc3ccccc3)ccc2n1C/C=C/c1ccccc1 | inactive: 12.2%
24 | CCCCc1nc2ccccc2c(=O)n1NC(=O)c1c(O)c2ccccc2n(C)c1=O | inactive: 12.3%
25 | Cc1nn2c(Nc3ccccc3)c3c(nc2c1-c1ccccc1)CCC3 | inactive: 30.7%
26 | CN(C)CC(C)(C)CNS(=O)(=O)c1cccc2nsnc12 | inactive: 3.8%
27 | Cc1cc(SCC(=O)NN=C2CCN(C(C)C)CC2)c(C)cc1Br | inactive: 20.8%

Row | SMILES | growth rescue (activation)
28 | COc1ccc(C(=O)CN2CCN(c3ncccn3)CC2)cc1 | inactive: -14.8%
29 | CCCN(CC(=O)Nc1ccccc1OC)C(=O)c1ccncc1 | inactive: -13.8%
30 | O=C(NCC(=O)N(c1ccccc1)C(C(=O)NC1CCCC1)c1ccncc1)c1cccs1 (stereo not drawn) | inactive: -13.7%
31 | O=C1NCC(=O)N2C(c3ccccc3)c3[nH]c4ccccc4c3C[C@@H]12 (stereo partly drawn) | inactive: -2.29%
32 | CC(C)c1ccc2oc(=O)cc(CN3CCCCC3)c2c1 | inactive: -3.61%
33 | CCCCCCn1nc(C(=O)OCC(=O)c2c(N)n(C)c(=O)n(C)c2=O)c2ccccc2c1=O | inactive: 6.79%
34 | CCOC(=O)c1ccccc1NC(=O)C1CC(=O)N(C2CCCC2)C1 (stereo not drawn) | inactive: -5%
35 | Cc1ccc(S(=O)(=O)N[C@H](C(=O)Oc2ccc3c(C(F)(F)F)cc(=O)oc3c2)c2ccccc2)cc1 | inactive: -20.2%
36 | Cc1cccc(C)c1NC(=O)CNC(=O)c1cncc(Br)c1 | inactive: 5.33%
37 | CC(CC(=O)C1C(C)C=CCC1(C)C)NNC(N)=O (stereo not drawn) | inactive: -3.26%
38 | CCCn1nc(C(=O)OCC(=O)Nc2ccc(C(N)=O)cc2)c2ccccc2c1=O | inactive: 7.41%
39 | COc1ccccc1N=C1SC(C(=O)Nc2ccccc2OC)CC(=O)N1C (stereo not drawn) | inactive: 9.16%
40 | CCn1ccnc1CN(C)C(=O)CC1C(=O)NCCN1Cc1c(F)cccc1Cl (stereo not drawn) | inactive: -1.92%
41 | COCCn1c(SCC(=O)NNC(=O)c2ccccc2)nc2ccccc21 | inactive: -9.12%
42 | Cc1onc(-c2ccccc2)c1C(=O)N1CCCSC1=Nc1ccccc1 | inactive: -14.9%
43 | N#Cc1c(SCC(N)=O)nc2c(c1-c1ccncc1)CCCC2 | inactive: 13.6%
44 | COc1ccc(C(=O)N/N=C/c2ccc(N3CCOCC3)o2)cc1OC | inactive: 9.77%
45 | N#CC(=C(O)CN1CCN(c2ccccc2F)CC1)c1nc(-c2ccccc2)cs1 | inactive: -6.33%
46 | CCOC(=O)c1c(C)[nH]c(C)c1C(=O)COC(=O)c1ccc(Cl)nc1 | inactive: 18.7%
47 | O=C(O)c1ccc(Oc2c(C(F)(F)F)oc3cc(O)ccc3c2=O)cc1 | inactive: -0.367%
48 | COc1ccc(C2=NN(C(=O)c3cccnc3)C(c3ccccc3)C2)cc1 (stereo not drawn) | inactive: 26.1%
49 | CCOC(=O)Nc1ccc2c(c1)nc1n2CCN(CCOC)C1 | inactive: -12.5%
50 | NNc1nc2c(-c3cccc(C(F)(F)F)c3)nnn2c2ccccc12 | inactive: 35.1%
51 | COc1ccccc1C(C)NC(=O)CCOc1cccc(C)c1 (stereo not drawn) | inactive: 8.86%
52 | Fc1ccc(-n2nnc(-c3ccccc3Cl)n2)cc1 | inactive: 10.3%
53 | N#Cc1cccc(NC(=O)CCN2C(=O)C3CCCCC3C2=O)c1 (stereo not drawn) | inactive: 11.3%

— PubChem BioAssay AID1347073 (National Center for Advancing Translational Sciences (NCATS), 2019)
